Data taken from the supplement of paper PMC11880418.
Counter-ions that a name gives are not always drawn. The list shows a part of the results. The data scatter; read single values as rough.

What was measured:
Experiment in all cases: ALDHbr (CSC) cell proportion score relative to DMSO vehicle (ratio to DMSO); breast (SUM159) / gastric (MKN45) / pancreatic (PANC1) / colon cancer lines; ALDHbr cells have high ALDH activity and are rich in cancer stem cells (CSC); higher = more CSC (ALDHbr) cells remaining
Details in all cases: 10 µM; 72 h
[1] = test system: MKN45
[2] = test system: PANC1
[3] = test system: SUM159
[4] = test system: T84
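Note: High-content imaging of ALDEFLUOR-stained cells with Hoechst-labelled nuclei in 384-well plates, triplicate wells, scored as Z-score against 0.1% DMSO vehicle, negative meaning fewer ALDHbr cells.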

CNC(=C[N+](=O)[O-])NCCSCc1csc(CN(C)C)n1 [Nizatidine]
ALDHbr [1]: 1 | ALDHbr [2]: 0.847 | ALDHbr [3]: 1.19 | ALDHbr [4]: 0.913

CC(C[N+](C)(C)C)OC(N)=O (configuration not stated) [Bethanechol chloride]
ALDHbr [1]: 1.03 | ALDHbr [2]: 1.03 | ALDHbr [3]: 0.878 | ALDHbr [4]: 0.817

COc1cc2nc(N3CCN(C(=O)c4ccco4)CC3)nc(N)c2cc1OC [Prazosin hydrochloride]
ALDHbr [1]: 0.226 | ALDHbr [2]: 0.812 | ALDHbr [3]: 1.03 | ALDHbr [4]: 1.14

CC(=O)N[C@@H](CC(C)C)C(=O)O [N-Acetyl-L-leucine]
ALDHbr [1]: 1.05 | ALDHbr [2]: 1.1 | ALDHbr [3]: 0.931 | ALDHbr [4]: 1.11

CCOC(=O)n1ccn(C)c1=S [Carbimazole]
ALDHbr [1]: 0.963 | ALDHbr [2]: 1.04 | ALDHbr [3]: 1.04 | ALDHbr [4]: 0.931

CCCC1C(=O)N2C(N(C)C)=Nc3ccc(C)cc3N2C1=O (configuration not stated) [Azapropazone]
ALDHbr [1]: 0.706 | ALDHbr [2]: 0.811 | ALDHbr [3]: 1.31 | ALDHbr [4]: 0.76

C#C[C@]1(O)CC[C@H]2[C@@H]3CCc4cc(O)ccc4[C@H]3CC[C@@]21C [Ethinylestradiol]
ALDHbr [1]: 0.986 | ALDHbr [2]: 1.08 | ALDHbr [3]: 1.19 | ALDHbr [4]: 0.839

CCN(CC)C(=O)Nc1ccc(OCC(O)CNC(C)(C)C)c(C(C)=O)c1 (configuration not stated) [Celiprolol hydrochloride]
ALDHbr [1]: 0.957 | ALDHbr [2]: 0.873 | ALDHbr [3]: 1.68 | ALDHbr [4]: 1.14

Nc1ccc(S(=O)(=O)Nc2cnc3ccccc3n2)cc1 [Sulfaquinoxaline sodium salt]
ALDHbr [1]: 1.02 | ALDHbr [2]: 0.877 | ALDHbr [3]: 0.812 | ALDHbr [4]: 0.978

COc1ccccc1Oc1c(NS(=O)(=O)c2ccc(C(C)(C)C)cc2)nc(-c2ncccn2)nc1OCCO [Bosentan]
ALDHbr [1]: 0.778 | ALDHbr [2]: 0.964 | ALDHbr [3]: 0.428 | ALDHbr [4]: 1.07

Cc1cnc(C(=O)O)c[n+]1[O-] [Acipimox]
ALDHbr [1]: 1 | ALDHbr [2]: 0.951 | ALDHbr [3]: 0.932 | ALDHbr [4]: 0.825

CC(Cc1cccc(C(F)(F)F)c1)NCCOC(=O)c1ccccc1 (configuration not stated) [Benfluorex]
ALDHbr [1]: 1.06 | ALDHbr [2]: 0.892 | ALDHbr [3]: 1.49 | ALDHbr [4]: 1.17

CC1CS(=O)(=O)CCN1/N=C/c1ccc([N+](=O)[O-])o1 (configuration not stated) [Nifurtimox]
ALDHbr [1]: 0.587 | ALDHbr [2]: 1.04 | ALDHbr [3]: 0.539 | ALDHbr [4]: 0.721

CC(C)c1ccc2oc3nc(N)c(C(=O)O)cc3c(=O)c2c1 [Amlexanox]
ALDHbr [1]: 0.869 | ALDHbr [2]: 0.867 | ALDHbr [3]: 1 | ALDHbr [4]: 0.881

CCCNC(C)C(=O)Nc1c(C)csc1C(=O)OC (configuration not stated) [Articaine hydrochloride]
ALDHbr [1]: 1.13 | ALDHbr [2]: 0.954 | ALDHbr [3]: 1.04 | ALDHbr [4]: 1.11

Cn1c(=O)c2[nH]cnc2n(C)c1=O [Aminophylline]
ALDHbr [1]: 0.864 | ALDHbr [2]: 0.936 | ALDHbr [3]: 1.22 | ALDHbr [4]: 0.828

CNCC(O)c1ccc(O)c(O)c1 (configuration not stated) [Racepinephrine hydrochloride]
ALDHbr [1]: 1.27 | ALDHbr [2]: 0.796 | ALDHbr [3]: 1.73 | ALDHbr [4]: 0.818

CCCCOc1ccc(OCCCN2CCOCC2)cc1 [Pramoxine hydrochloride]
ALDHbr [1]: 0.694 | ALDHbr [2]: 0.96 | ALDHbr [3]: 1.1 | ALDHbr [4]: 1.02

COc1ccc(C(=O)c2ccccc2)c(O)c1 [Oxybenzone]
ALDHbr [1]: 1.21 | ALDHbr [2]: 0.758 | ALDHbr [3]: 0.972 | ALDHbr [4]: 1.32

CN1C(=O)CC(c2ccccc2)C1=O (configuration not stated) [Phensuximide]
ALDHbr [1]: 1.12 | ALDHbr [2]: 1.06 | ALDHbr [3]: 1.11 | ALDHbr [4]: 1.09

CC(=O)N1CCN(c2ccc(OCC3COC(Cn4ccnc4)(c4ccc(Cl)cc4Cl)O3)cc2)CC1 (configuration not stated) [Ketoconazole]
ALDHbr [1]: 0.726 | ALDHbr [2]: 0.513 | ALDHbr [3]: 0.854 | ALDHbr [4]: 0.682

CC[C@H](C)C(=O)O[C@H]1CCC=C2C=C[C@H](C)[C@H](CC[C@@H]3C[C@@H](O)CC(=O)O3)[C@H]21 [Mevastatin]
ALDHbr [1]: 0.557 | ALDHbr [2]: 1.07 | ALDHbr [3]: 1.82 | ALDHbr [4]: 0.772

O=C(C1CCCCC1)N1CC(=O)N2CCc3ccccc3C2C1 (configuration not stated) [Praziquantel]
ALDHbr [1]: 0.388 | ALDHbr [2]: 0.662 | ALDHbr [3]: 1.25 | ALDHbr [4]: 0.858

NCCNCCNCCNCCN [Tetraethylenepentamine pentahydrochloride]
ALDHbr [1]: 0.775 | ALDHbr [2]: 0.8 | ALDHbr [3]: 1.6 | ALDHbr [4]: 0.943

CC(=O)[C@@]12O[C@](C)(c3ccccc3)O[C@@H]1C[C@H]1[C@@H]3CCC4=CC(=O)CC[C@]4(C)[C@H]3CC[C@@]12C [Algestone acetophenide]
ALDHbr [1]: 0.396 | ALDHbr [2]: 0.821 | ALDHbr [3]: 0.428 | ALDHbr [4]: 0.549

Cc1c(NC(=O)c2cccnc2)c(=O)n(-c2ccccc2)n1C [Nifenazone]
ALDHbr [1]: 1.12 | ALDHbr [2]: 0.852 | ALDHbr [3]: 0.979 | ALDHbr [4]: 1.09

C[C@]12CC[C@@H]3c4ccc(OS(=O)(=O)O)cc4CC[C@H]3[C@@H]1CCC2=O [Estropipate]
ALDHbr [1]: 0.936 | ALDHbr [2]: 0.938 | ALDHbr [3]: 1.17 | ALDHbr [4]: 0.982

Cc1c(O)cccc1C(=O)N[C@@H](CSc1ccccc1)[C@H](O)CN1C[C@H]2CCCC[C@H]2C[C@H]1C(=O)NC(C)(C)C [Nelfinavir mesylate]
ALDHbr [1]: 0.695 | ALDHbr [2]: 1.34 | ALDHbr [3]: 0.61 | ALDHbr [4]: 0.424
